Measurements taken from the RNAGym collection of RNA variant scans (doi:10.1073/pnas.2313332121).
Variants at the background level are over-represented here.

B1: TPR 5TU (parent)
chain: GGAUCUUCUCGAUCUAACAAAAAAGACAAAUCUGCCACAAAGCUUGAGAGCAUCUUCGGAUGCAGAGGCGGCAGCCUUCGGUGGCGCGAUAGCGCCAACGUUCUCAACUAUGACACGCAAAACGCGUGCUCCGUUGAAUGGAGUUUAUCAUG

Variants of: B1
Assay: polymerase ribozyme fitness, log enrichment relative to wild type (log ratio); higher = more active; in vitro selection for triplet polymerase activity
In short: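 Mutant libraries of both subunits of a heterodimeric triplet polymerase ribozyme were PCR-built, transcribed, and selected once in triplicate, with frozen incubation at −7 °C and capture of gel-excised extended constructs on streptavidin beads before RT-PCR. Illumina sequencing of input and output libraries was filtered to genotypes with ≥10 input reads and ≥1 read per output. Fitness is the logarithm of genotype enrichment over wild-type enrichment, using inverse-variance-weighted replicate averages. The logarithm is base 2.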

Q: With G11U A47G U53A as the variant, how does the “polymerase ribozyme fitness (log ratio)” value read?
A: The value was -2.54.

Q: With G11U A52U as the variant, how does the “polymerase ribozyme fitness (log ratio)” value read?
A: The value was -2.33.

Q: With G11U C14G A41U G71A G88U U101C C116A G143C as the variant, how does the “polymerase ribozyme fitness (log ratio)” value read?
A: Its value is at most -4.2.

Q: Which “polymerase ribozyme fitness (log ratio)” value does the source give for G11U C14U C72U G143A here?
A: The value was at most -4.2.

Q: Which “polymerase ribozyme fitness (log ratio)” value does the source give for G11U C18G G58C A60C U78C G83A C96U A115C here?
A: Its value is at most -4.2.

Q: With G11U C27U C32U C36U G48U C54G A91U G100U as the variant, how does the “polymerase ribozyme fitness (log ratio)” value read?
A: Its value is at most -4.2.

Q: With G11U C36A C96A as the variant, how does the “polymerase ribozyme fitness (log ratio)” value read?
A: Its value is at most -4.2.

Q: For G11U C38A G83U U135C C149G, which “polymerase ribozyme fitness (log ratio)” value is on record?
A: The value was at most -4.2.

Q: Which “polymerase ribozyme fitness (log ratio)” value does the source give for G11U C43A C76U C95U here?
A: The value was at most -4.2.

Q: For G11U C51U A113U C132A U139G U146A, which “polymerase ribozyme fitness (log ratio)” value is on record?
A: The value was at most -4.2.

Q: With G11U C54U U77G G92U U145A A147U as the variant, how does the “polymerase ribozyme fitness (log ratio)” value read?
A: Its value is at most -4.2.

Q: For G11U C85G U104G G141U, which “polymerase ribozyme fitness (log ratio)” value is on record?
A: The value was at most -4.2.

Q: With G11U C93U A119C C149U as the variant, how does the “polymerase ribozyme fitness (log ratio)” value read?
A: The value was -3.06.

Q: Which “polymerase ribozyme fitness (log ratio)” value does the source give for G11U G25C G71C C95G C103A C116G here?
A: The value was at most -4.2.

Q: With G11U G46A C85U as the variant, how does the “polymerase ribozyme fitness (log ratio)” value read?
A: The value was -2.44.

Q: With G11U G68U A120U C125U as the variant, how does the “polymerase ribozyme fitness (log ratio)” value read?
A: The value was at most -4.2.

Q: For G11U G74U G81U G88C A89G C95U G128U U148A, which “polymerase ribozyme fitness (log ratio)” value is on record?
A: The value was at most -4.2.

Q: With G11U G74U G83C G94C as the variant, how does the “polymerase ribozyme fitness (log ratio)” value read?
A: Its value is at most -4.2.

Q: For G11U U13A C35U A49C C57U G92A A142U, which “polymerase ribozyme fitness (log ratio)” value is on record?
A: Its value is at most -4.2.

Q: With G11U U13A U53A G92C C99G A137G as the variant, how does the “polymerase ribozyme fitness (log ratio)” value read?
A: Its value is at most -4.2.

Q: Which “polymerase ribozyme fitness (log ratio)” value does the source give for G11U U15A G58U G59U G68U U77G C85G A113C A142U here?
A: The value was at most -4.2.

Q: Which “polymerase ribozyme fitness (log ratio)” value does the source give for G11U U31C U44G G48C G83U G86U A91U A115C C125U here?
A: The value was at most -4.2.

Q: With G11U U33G A66C G84A G128U A137C U145A as the variant, how does the “polymerase ribozyme fitness (log ratio)” value read?
A: The value was at most -4.2.

Q: With G11U U53A G71A C95U A138U as the variant, how does the “polymerase ribozyme fitness (log ratio)” value read?
A: Its value is at most -4.2.

Q: Which “polymerase ribozyme fitness (log ratio)” value does the source give for G11U U56A A64G C118U A121U here?
A: The value was at most -4.2.

Q: For G11U U90A A119U G133C, which “polymerase ribozyme fitness (log ratio)” value is on record?
A: The value was at most -4.2.

Q: With A12C A16G U55A as the variant, how does the “polymerase ribozyme fitness (log ratio)” value read?
A: The value was -2.45.

Q: Which “polymerase ribozyme fitness (log ratio)” value does the source give for A12C A16U C35U U53A C76G C96G here?
A: Its value is at most -4.2.

Q: Which “polymerase ribozyme fitness (log ratio)” value does the source give for A12C A16U U61A C125A here?
A: Its value is -3.45.

Q: Which “polymerase ribozyme fitness (log ratio)” value does the source give for A12C A17C G42C G58A C79G G88C C99U U127G C132A U134G A150C here?
A: The value was at most -4.2.

Q: Which “polymerase ribozyme fitness (log ratio)” value does the source give for A12C A17C G88U C149G here?
A: The value was at most -4.2.

Q: With A12C A17U A24U A52C U53A C75U G83A C96A as the variant, how does the “polymerase ribozyme fitness (log ratio)” value read?
A: Its value is at most -4.2.

Q: For A12C A19C A122G U146C, which “polymerase ribozyme fitness (log ratio)” value is on record?
A: The value was -1.62.

Q: With A12C A19C C75U A89U C93A U102A as the variant, how does the “polymerase ribozyme fitness (log ratio)” value read?
A: Its value is at most -4.2.

Q: Which “polymerase ribozyme fitness (log ratio)” value does the source give for A12C A20C A29U A49G G50C C69U C114A here?
A: The value was at most -4.2.

Q: With A12C A21G C51U G83U as the variant, how does the “polymerase ribozyme fitness (log ratio)” value read?
A: The value was -2.15.

Q: For A12C A21U C75A G88U C96A U102G C105U A120G, which “polymerase ribozyme fitness (log ratio)” value is on record?
A: Its value is at most -4.2.

Q: Which “polymerase ribozyme fitness (log ratio)” value does the source give for A12C A21U U53A G59C A60G G84A here?
A: The value was -0.862.

Q: For A12C A23C G58A G68C, which “polymerase ribozyme fitness (log ratio)” value is on record?
A: Its value is at most -4.2.

Q: For A12C A24U G92C C108G U127G U146G, which “polymerase ribozyme fitness (log ratio)” value is on record?
A: The value was at most -4.2.

Q: With A12C A26U U31C C38U G71A C125U G140U as the variant, how does the “polymerase ribozyme fitness (log ratio)” value read?
A: Its value is at most -4.2.

Q: With A12C A28C A73G G86U A107G C149A as the variant, how does the “polymerase ribozyme fitness (log ratio)” value read?
A: The value was at most -4.2.

Q: With A12C A28C C87A U134G as the variant, how does the “polymerase ribozyme fitness (log ratio)” value read?
A: The value was at most -4.2.

Q: Which “polymerase ribozyme fitness (log ratio)” value does the source give for A12C A29C A52G U56A C93A G141A here?
A: Its value is at most -4.2.

Q: Which “polymerase ribozyme fitness (log ratio)” value does the source give for A12C A29U A52G C85A C108G U139C here?
A: The value was at most -4.2.

Q: With A12C A29U G42U C87U A91U U145C as the variant, how does the “polymerase ribozyme fitness (log ratio)” value read?
A: The value was at most -4.2.

Q: Which “polymerase ribozyme fitness (log ratio)” value does the source give for A12C A30G here?
A: Its value is -3.77.

Q: With A12C A37U A52C U61A A91G as the variant, how does the “polymerase ribozyme fitness (log ratio)” value read?
A: The value was at most -4.2.

Q: For A12C A40G C54A A115G U139C U144A, which “polymerase ribozyme fitness (log ratio)” value is on record?
A: Its value is at most -4.2.

Q: For A12C A41C G50A G86U A137C C149A, which “polymerase ribozyme fitness (log ratio)” value is on record?
A: Its value is at most -4.2.

Q: With A12C A52C U56A U78A U109G A150G as the variant, how does the “polymerase ribozyme fitness (log ratio)” value read?
A: The value was at most -4.2.

Q: Which “polymerase ribozyme fitness (log ratio)” value does the source give for A12C A52G here?
A: The value was -0.179.

Q: For A12C A52U U53A C57G U61G G68C A119U G124C G141C, which “polymerase ribozyme fitness (log ratio)” value is on record?
A: Its value is at most -4.2.

Q: For A12C A64G C85A G100C, which “polymerase ribozyme fitness (log ratio)” value is on record?
A: The value was at most -4.2.

Q: With A12C A66G A91U as the variant, how does the “polymerase ribozyme fitness (log ratio)” value read?
A: The value was at most -4.2.

Q: Which “polymerase ribozyme fitness (log ratio)” value does the source give for A12C C14A A24G A49G U82A C95G here?
A: The value was at most -4.2.

Q: For A12C C14U U55A A98G C103G G133A, which “polymerase ribozyme fitness (log ratio)” value is on record?
A: Its value is at most -4.2.

Q: Which “polymerase ribozyme fitness (log ratio)” value does the source give for A12C C27G A37G A40U U55G U148C here?
A: Its value is at most -4.2.

Q: With A12C C27U G34U C63U C93A as the variant, how does the “polymerase ribozyme fitness (log ratio)” value read?
A: The value was -4.1.

Q: For A12C C32A G71C C76G U78C C108U U134A A137G A142C G143A, which “polymerase ribozyme fitness (log ratio)” value is on record?
A: The value was at most -4.2.

Q: For A12C C32G C35G G62A G92U C105U C125U A142C, which “polymerase ribozyme fitness (log ratio)” value is on record?
A: Its value is at most -4.2.

Q: Which “polymerase ribozyme fitness (log ratio)” value does the source give for A12C C32U U56C C87A A89U A106U U130G here?
A: The value was at most -4.2.

Q: Which “polymerase ribozyme fitness (log ratio)” value does the source give for A12C C57G C87A G124C C131U here?
A: The value was at most -4.2.

Q: For A12C C63A U139C A150G, which “polymerase ribozyme fitness (log ratio)” value is on record?
A: Its value is at most -4.2.

Q: Which “polymerase ribozyme fitness (log ratio)” value does the source give for A12C C72G G88C C99A G124C U144A here?
A: The value was at most -4.2.

Q: Which “polymerase ribozyme fitness (log ratio)” value does the source give for A12C C75G G86U G141A U146G U151G here?
A: Its value is at most -4.2.

Q: Which “polymerase ribozyme fitness (log ratio)” value does the source give for A12C C85U G128A C132U here?
A: Its value is at most -4.2.

Q: With A12C C87G A137U A138C as the variant, how does the “polymerase ribozyme fitness (log ratio)” value read?
A: Its value is at most -4.2.

Q: With A12C C87G G100C as the variant, how does the “polymerase ribozyme fitness (log ratio)” value read?
A: The value was at most -4.2.

Q: For A12C C93U, which “polymerase ribozyme fitness (log ratio)” value is on record?
A: Its value is -2.17.

Q: Which “polymerase ribozyme fitness (log ratio)” value does the source give for A12C C99A A119G U145C here?
A: The value was -1.83.

Q: For A12C G34A G67A G84A G152U, which “polymerase ribozyme fitness (log ratio)” value is on record?
A: Its value is at most -4.2.

Q: With A12C G46A U53A C57A C75U C129A as the variant, how does the “polymerase ribozyme fitness (log ratio)” value read?
A: The value was at most -4.2.

Q: Which “polymerase ribozyme fitness (log ratio)” value does the source give for A12C G48U U82C A89U G94U C108G G112U A122U here?
A: The value was at most -4.2.

Q: For A12C G50A C54A G65A A107C A137G, which “polymerase ribozyme fitness (log ratio)” value is on record?
A: Its value is at most -4.2.

Q: With A12C G62A C105A as the variant, how does the “polymerase ribozyme fitness (log ratio)” value read?
A: Its value is at most -4.2.

Q: Which “polymerase ribozyme fitness (log ratio)” value does the source give for A12C G68A U77C G124A here?
A: Its value is at most -4.2.

Q: Which “polymerase ribozyme fitness (log ratio)” value does the source give for A12C G81A G92C C99U G124C G133U here?
A: Its value is at most -4.2.

Q: With A12C G86C A106U A115U U144A as the variant, how does the “polymerase ribozyme fitness (log ratio)” value read?
A: The value was at most -4.2.

Q: For A12C U13C C14G A16C C93A U109A G136A A150U, which “polymerase ribozyme fitness (log ratio)” value is on record?
A: The value was at most -4.2.

Q: With A12C U13G C18G A21G U101A A110U A120U G136C G140U G152U as the variant, how does the “polymerase ribozyme fitness (log ratio)” value read?
A: Its value is at most -4.2.

Q: Which “polymerase ribozyme fitness (log ratio)” value does the source give for A12C U15G A29C G50U C85U G92A C95U G143A U144A here?
A: Its value is at most -4.2.

Q: With A12C U31G A37C G42A G92C C123G as the variant, how does the “polymerase ribozyme fitness (log ratio)” value read?
A: The value was at most -4.2.
